Results taken from paper PMC6212790.
The other results are listed elsewhere or left out. At the low end of the ranking the order means little.

Each sequence was assayed against T1, GST-Rok (full length) (UniProt O34857) (assay: protein binding microarray). Settings: Rok is a gene silencer of Bacillus subtilis; high values mean tight binding; most listed sequences are background and not binding sites; double strand, one strand shown.
T1 sequence: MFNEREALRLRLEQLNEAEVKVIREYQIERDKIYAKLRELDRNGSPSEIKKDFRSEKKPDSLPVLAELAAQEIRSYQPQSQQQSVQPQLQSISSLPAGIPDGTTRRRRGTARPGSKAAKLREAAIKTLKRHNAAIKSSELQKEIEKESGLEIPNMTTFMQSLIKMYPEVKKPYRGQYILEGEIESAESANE
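Note: rank score from −0.5 (least bound) to 0.5 (best bound).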

| Sequence | binding signal [E-score] |
| --- | --- |
| ATGTTTCC | 0.0873 |
| ACACACCG | 0.0452 |
| ACAACCCG | -0.0973 |
| AAGTAAAG | 0.205 |
| GTTAGCTA | 0.302 |
| GAAAGAAC | 0.0146 |
| ATCTAAAT | 0.152 |
| GCCATTTA | -0.0923 |
| CTACGACC | 0.0186 |
| ACATGTAC | 0.358 |
| ACGGCAAT | 0.146 |
| CGTGGCTC | -0.0956 |
| ATGTTCTG | 0.0912 |
| AGCCAACC | -0.122 |
| AACGTCGT | 0.0347 |
| CACCCGAC | -0.335 |
| AATTAGAC | 0.085 |
| CATGTTCA | 0.0566 |
| GAAACTAA | 0.244 |
| ATGCGTAG | 0.0828 |
| AATTGAAA | 0.0815 |
| GACGCTAC | 0.192 |
| AGCAGCCG | -0.245 |
| CACTCCAA | -0.121 |
| TAGCCGCA | -0.0859 |

| Sequence | binding signal [E-score] |
| --- | --- |
| TGTCTGAA | -0.166 |
| CCTACTTC | 0.211 |
| CTAGCACA | 0.21 |
| GGTGCGGA | -0.213 |
| GGCAAAAA | -0.188 |
| CTGGTGTC | -0.204 |
| AGTGACTC | -0.124 |
| CAATCTGG | -0.0384 |
| CGGCCGAA | -0.247 |
| TCACTAGA | 0.0687 |
| ACTAGGGG | -0.0695 |
| TGGAGTAA | 0.14 |
| GCTGCGAC | -0.222 |
| AAGTCAAT | 0.226 |
| CCCACTAG | -0.0704 |
| GAATTGAA | 0.134 |
| GCCACAGA | -0.139 |
| CGCCCGTA | -0.0553 |
| ATTGCCCG | -0.181 |
| ACGCAATG | 0.0578 |
| GAACAGGA | -0.0988 |
| ACGACGCA | 0.114 |
| GTACTTTA | 0.377 |
| GAAAGTGC | -0.0988 |
| CCCATGCA | -0.0773 |

| Sequence | binding signal [E-score] |
| --- | --- |
| ACCATTAT | 0.241 |
| ACGCTTAT | 0.179 |
| AACTGCAT | 0.089 |
| AGTTATGA | 0.184 |
| CAGAGATG | -0.234 |
| GCCGCACA | -0.309 |
| GTTTATCA | 0.0624 |
| CCTTCCCG | -0.281 |
| ATTCAAGG | -0.126 |
| CGGACGGC | -0.336 |
| AACTACGT | 0.306 |
| ACCTCTCT | -0.21 |
| CCCTTGGA | -0.314 |
| AATTTTGT | 0.24 |
| GTACCTAA | 0.132 |
| ACTTCGCA | 0.0607 |
| AGTCATTC | 0.0712 |
| CAACTCTC | -0.0366 |
| CACCTGCC | -0.272 |
| ACTATGGC | -0.059 |
| CTAACTTC | 0.0524 |
| ATTTTCAC | 0.169 |
| AAGGCCGA | -0.334 |
| CCAAATGA | -0.0153 |
| ATGAATCG | 0.14 |

| Sequence | binding signal [E-score] |
| --- | --- |
| CTGGACAC | -0.0795 |
| TATAGCCA | 0.0739 |
| CCCCTTAA | -0.267 |
| ATTCGCTC | -0.069 |
| CTGACCGA | -0.157 |
| CTCACATA | -0.016 |
| ACGGTCGG | -0.251 |
| GCTGTACA | 0.0568 |
| AGGGACGG | -0.37 |
| GTTGCCCA | -0.231 |
| GAAGCTAC | 0.323 |
| TGTCAACA | -0.103 |
| AAGTCATT | 0.0424 |
| GAATATCC | 0.206 |
| CTCCCGCC | -0.424 |
| CCTGGATC | 0.022 |
| CGACTACG | -0.0988 |
| CGAAGGGC | -0.255 |
| AGAGCTCA | -0.0756 |
| AGGCGTAG | -0.0776 |
| GCCCGGGA | -0.28 |
| GGCGCCTA | -0.251 |
| CCAAGCCG | -0.28 |
| ATACGCTC | -0.126 |
| CTTCAGTA | 0.0731 |

| Sequence | binding signal [E-score] |
| --- | --- |
| CCGATCAC | -0.136 |
| GGGTTAGA | -0.175 |
| CCGTTTCG | -0.0408 |
| AGCACTAA | -0.126 |
| GAAGACCC | -0.277 |
| CCGTGTTC | 0.0288 |
| ACGTGCCC | -0.234 |
| CACGCCTA | 0.0158 |
| AGAATAGC | 0.0305 |
| CACTTAGG | -0.0553 |
| AGCGCAGC | -0.35 |
| AGACGGGC | -0.126 |
| CTCAGAAA | -0.0607 |
| AGTTAAAC | 0.0028 |
| GACAAAAC | -0.086 |
| AAAATGGA | -0.04 |
| CTCCTGCC | -0.201 |
| GCCCCAGA | -0.149 |
| CCCTAGGG | -0.38 |
| CAACTGAC | -0.0595 |
| ACGTACCC | -0.184 |
| AGCGTCTA | 0.0457 |
| ATCAAGCC | -0.197 |
| GTGAAATA | 0.147 |
| CCCAGTCC | -0.217 |

| Sequence | binding signal [E-score] |
| --- | --- |
| GAATATGC | 0.0354 |
| CTTGTTAA | 0.146 |
| AAACTATC | 0.412 |
| TCCACGCA | -0.194 |
| CAACTTAC | 0.216 |
| AGTCTTTA | -0.0752 |
| CCGAGAAC | -0.0718 |
| ACGCGCAC | -0.184 |
| GAAGGCGA | -0.283 |
| ATTATAAC | 0.283 |
| AGATACCA | 0.155 |
| ACGGATTG | -0.0128 |
| ATAAAGTA | 0.283 |
| CCCTGATA | -0.0284 |
| GTGCAATA | 0.0353 |
| GCCACGGA | -0.302 |
| GTGAGCTA | 0.0438 |
| CCAACAAG | -0.116 |
| CCGCTCCA | -0.115 |
| CGCCGCCG | -0.272 |
| AGTCCCCA | -0.16 |
| CTTGATAA | 0.15 |
| AGGGAAAG | -0.163 |
| GGCGGGAC | -0.221 |
| AGCGGTGA | -0.0797 |

| Sequence | binding signal [E-score] |
| --- | --- |
| TATTCGAA | 0.26 |
| CGGTTATA | 0.184 |
| AACAATAA | 0.143 |
| AACGCATC | -0.0467 |
| AAGCGGAT | 0.00558 |
| AGGGCTAA | -0.0634 |
| CAAGTGAA | 0.00305 |
| ACTTGATA | 0.0801 |
| AATTAGGC | 0.203 |
| CGTTTGGA | 0.0792 |
| ACCGGGCT | -0.276 |
| CCAGTTTA | -0.0136 |
| CACTCTCC | -0.167 |
| TGTGCTAA | 0.137 |
| AACCTAAG | -0.0483 |
| CGGCGGGC | -0.339 |
| GACCTGGA | 0.025 |
| CGCGAAGA | 0.114 |
| CTGCGCAA | -0.0519 |
| CACTAACC | 0.0432 |
| ACCGAAAT | 0.182 |
| GTGTTAAA | -0.00319 |
